Values quoted from earlier work, collected in article PMC10917340, “Coxsackievirus infection induces direct pancreatic β cell killing but poor antiviral CD8^+ T cell responses” (Science Advances, 2024).

System: new-onset T1D children and adolescents
Settings: pleconaril and ribavirin given together; cited from earlier work

SMILES | effect on residual insulin secretion
Cc1cc(CCCOc2c(C)cc(-c3noc(C(F)(F)F)n3)cc2C)on1 [pleconaril] | some preservation of residual insulin secretion
NC(=O)c1ncn([C@@H]2O[C@H](CO)[C@@H](O)[C@H]2O)n1 [ribavirin] | some preservation of residual insulin secretion
